The IC50 comes from the fitted curve, where viability falls to half of the control; a fit beyond the top or the lowest dose is shown as a bound at that dose. AUC is the area under the same curve over the 256-fold range up to the top dose, as a fraction; it is 1 without any effect and falls as sensitivity rises. A top dose marked as inferred was derived from the fitted curves, not read from the paper.
Assays:
Experiment in all cases: Viability of human cancer cell lines after 72 h of drug (GDSC screen)
[1] = compound: O=C1/C(=C/c2cccs2)CC/C1=C\c1cccs1 [CCT007093]; settings: top dose 6.6 µM; top dose inferred
Experimental: (§1)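 Human cancer cell lines in 384-well plates, medium with 10% serum, drug for 72 h over a 256-fold dose range (nine 2-fold or five 4-fold steps up to the top dose). Adherent lines were fixed and stained with the nucleic acid dye Syto60, suspension lines read with resazurin; signal relative to control wells, capped at 0 and 100%. One two-parameter sigmoid per drug and line, fitted in a mixed model over all curves with the slope shared within a line.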

[2] = compound: CCN1CCC(n2cc(CNc3cc(Cl)c4ncc(C#N)c(Nc5ccc(F)c(Cl)c5)c4c3)nn2)CC1 [KIN001-266]; settings: top dose 20 µM; top dose inferred
Experimental: as §1

[3] = compound: C=CC(=O)N1CCc2ccc(-n3c(=O)ccc4cnc5ccc(-c6cnn(C)c6)cc5c43)cc21 [QL-XII-47]; settings: top dose 10.24 µM; top dose inferred
Experimental: as §1

[4] = compound: COc1ccc(-c2cc3nccn3c(Nc3ncccc3C(N)=O)n2)cc1OC [BAY 61-3606]; settings: top dose 8 µM; top dose inferred
Experimental: as §1

Cell Line | AUC [1] | IC50 [1] | AUC [2] | IC50 [2] | AUC [3] | IC50 [3] | AUC [4] | IC50 [4]
8-MG-BA (glioma, adherent) | 0.94 | > 6.6 µM | 0.976 | > 20 µM | 0.438 | 0.437 µM | 0.901 | > 8 µM
22RV1 (prostate, adherent) | 0.946 | > 6.6 µM | 0.868 | > 20 µM | 0.411 | 0.343 µM | 0.895 | > 8 µM
42-MG-BA (glioma, adherent) | 0.955 | > 6.6 µM | 0.861 | 18.8 µM | 0.898 | > 10.2 µM | 0.816 | 4.84 µM
201T (lung adenocarcinoma, adherent) | 0.974 | > 6.6 µM | 0.868 | > 20 µM | 0.776 | 5.19 µM | 0.785 | 4.4 µM
451Lu (melanoma, adherent) | 0.946 | > 6.6 µM | 0.877 | 18.5 µM | 0.888 | > 10.2 µM | 0.898 | > 8 µM
639-V (bladder, adherent) | 0.985 | > 6.6 µM | 0.927 | > 20 µM | 0.885 | 8.3 µM | 0.713 | 1.79 µM
647-V (bladder, adherent) | 0.973 | > 6.6 µM | 0.881 | > 20 µM | 0.683 | 2.09 µM | 0.817 | 4.52 µM
697 (lymphoblastic leukaemia, suspension) | 0.989 | > 6.6 µM | 0.868 | 12.4 µM | 0.456 | 0.498 µM | 0.53 | 0.594 µM
769-P (kidney, adherent) | 0.977 | > 6.6 µM | 0.87 | > 20 µM | 0.294 | 0.159 µM | 0.586 | 0.882 µM
786-0 (kidney, adherent) | 0.9 | > 6.6 µM | 0.874 | 16.8 µM | 0.25 | 0.132 µM | 0.669 | 1.42 µM
5637 (bladder, adherent) | 0.982 | > 6.6 µM | 0.851 | 13.1 µM | 0.624 | 1.35 µM | 0.896 | > 8 µM
8305C (thyroid, adherent) | 0.96 | > 6.6 µM | 0.94 | > 20 µM | 0.913 | > 10.2 µM | 0.721 | 2.6 µM
8505C (thyroid, adherent) | 0.983 | > 6.6 µM | 0.825 | 13 µM | 0.755 | 3.65 µM | 0.701 | 1.91 µM
23132-87 (stomach, adherent) | 0.982 | > 6.6 µM | 0.862 | 18.1 µM | 0.933 | > 10.2 µM | 0.918 | > 8 µM
A3-KAW (B-cell lymphoma, suspension) | 0.991 | > 6.6 µM | 0.817 | 8.43 µM | 0.342 | 0.258 µM | 0.554 | 0.679 µM
A4-Fuk (B-cell lymphoma, suspension) | 0.962 | > 6.6 µM | 0.93 | > 20 µM | 0.844 | 7.83 µM | 0.712 | 2.05 µM
A101D (melanoma, adherent) | 0.981 | > 6.6 µM | 0.851 | > 20 µM | 0.972 | > 10.2 µM | 0.694 | 2.01 µM
A172 (glioma, adherent) | 0.93 | > 6.6 µM | 0.86 | 15.7 µM | 0.864 | 8.44 µM | 0.737 | 2.3 µM
A204 (rhabdomyosarcoma, adherent) | 0.976 | > 6.6 µM | 0.861 | > 20 µM | 0.576 | 1.1 µM | 0.813 | 5.97 µM
A253 (head and neck, adherent) | 0.983 | > 6.6 µM | 0.953 | > 20 µM | 0.627 | 1.42 µM | 0.972 | > 8 µM
A375 (melanoma, adherent) | 0.988 | > 6.6 µM | 0.888 | 15.6 µM | 0.434 | 0.436 µM | 0.629 | 1.06 µM
A388 (skin, adherent) | 0.915 | > 6.6 µM | 0.889 | > 20 µM | 0.651 | 1.79 µM | 0.82 | 5.5 µM
A427 (non-small cell lung carcinoma, adherent) | 0.969 | > 6.6 µM | 0.875 | 20 µM | 0.75 | 3.37 µM | 0.776 | 3.21 µM
A431 (skin, adherent) | 0.982 | > 6.6 µM | 0.828 | 11.7 µM | 0.508 | 0.674 µM | 0.718 | 2 µM
A498 (kidney, adherent) | 0.875 | > 6.6 µM | 0.965 | > 20 µM | 0.829 | > 10.2 µM | 0.977 | > 8 µM
A673 (rhabdomyosarcoma, adherent) | 0.981 | > 6.6 µM | 0.962 | > 20 µM | 0.852 | 6.69 µM | 0.903 | > 8 µM
CHP-126 (neuroblastoma, suspension) | 0.987 | > 6.6 µM | 0.869 | 19.3 µM | – | – | 0.844 | 5.94 µM
DMS-273 (small cell lung carcinoma, adherent) | 0.978 | > 6.6 µM | 0.788 | 9.36 µM | – | – | 0.741 | 2.58 µM
Daudi (Burkitt lymphoma, suspension) | 0.981 | > 6.6 µM | 0.885 | 16.9 µM | – | – | 0.539 | 0.629 µM
